# Measured values as given in patent US20170342136A1, “MONOCLONAL ANTIBODY AGAINST MURAMYL PEPTIDES IN PREVENTION AND TREATMENT OF IMMUNE-MEDIATED DISEASES” (Agency for Science, Technology and Research, priority 2015, published 2017).
# What was measured:
# T cell proliferation = experiment: Flow cytometry analysis of splenocytes of CAIA mice; assay type: in vivo; settings: vs control antibody, n=4
# [1] = system: Collagen Antibody Induced Arthritis (CAIA) mouse model; experiment: CAIA mouse model, relapse study, clinical paw score; assay type: in vivo, Balb/c mice; settings: relapse by LPS on Day 16, single IP dose 20 mg, vs control group, n=4
# Method: (§1) CAIA was induced in 9-10 weeks old Balb/c mice by intravenous injection of 3 mg of Arthogen-CIA-5 cocktail from the tail vein on Day 0 and intraperitoneal injection of 25 µl of LPS on Day 3.
# [2] = system: NOD2 knockout CAIA mouse models; experiment: CAIA in NOD2 knockout mice, clinical paw score; assay type: in vivo, Nod2 knock-out mice in C57B/L6 background; settings: single IP dose on Day 2 vs control antibody
# Method: NOD2 is an intracellular pattern recognition receptor, which is similar in structure to resistant proteins of plants and recognizes molecules containing the specific structure of MDP. […] To test this hypothesis, Nod2 knock-out mice in C57B/L6 background were induced for CAIA as a single group on Day 0, by intravenous injection of 5 mg of Arthogen-CIA-5 cocktail from the tail vein. On day 2, mice were assessed by paw score (Table 3) and assigned to groups in a manner that different groups have similar average paw scores. The mice that were extremely sensitive to induction (score from a single paw=4) were excluded from the study. […] On day 3, each mouse was given an intraperitoneal injection of 50 μl of LPS. Higher amount of Arthogen-CIA-5 cocktail and LPS were used since mice in C57B/L6 background are more resistant to the CAIA induction than mice in Balb/c background.
# Escherichia coli cells = experiment: Fluorescence microscopy and aggregation of live bacterial cells incubated with 2E7; assay type: cell-based
# Method: (§2) The standard curve was used to determine the peptidoglycan concentration in a sample. […] Both bacteria were grown to OD600=1.5. Each culture was divided into two, and one treated with 40 μg/ml amoxicillin (Amx) and the other untreated. Aliquots were collected at the indicated times and the amount of MPs in the supernatant was determined by competitive ELISA. […] After removing unbound antibodies by PBS washes, the cells were incubated with a FITC-labeled anti-mouse IgG Ab before fluorescence microscopic examination.
# (§3) Both Staphylococcus aureus and Escherichia coli cells were first incubated with 2E7 and then with an anti-mouse IgG Ab conjugated with FITC.
# [3] = system: Staphylococcus aureus cells; experiment: as above; assay type: cell-based
# Method: as §2, §3
# [4] = system: Collagen Antibody Induced Arthritis (CAIA) mouse model; experiment: CAIA mouse model, preventive study, clinical paw score; assay type: in vivo, Balb/c mice; settings: single IP dose, vs isotype control antibody
# Method: Balb/c mice were stimulated to develop arthritis by injection with a cocktail of anti-collagen monoclonal antibodies. […] Each of the CAIA mice was given a single dose of intraperitoneal (IP) injection with 2E7 or an isotype control antibody at the onset of rheumatoid arthritis.
# as §1
# For the study of 2E7 on the prevention of rheumatoid arthritis, mice were randomly assigned to 2E7 treatment group or control group according to body weight.
# [5] = system: pro-inflammatory cytokines; experiment: Luminex assay on sera from CAIA mice; assay type: in vivo; settings: vs control antibody, n=8
# Method: Luminex assay was performed on the sera from the CAIA mice treated with control or 2E7 antibody.
# [6] = system: Collagen Antibody Induced Arthritis (CAIA) mouse model; experiment: CAIA mouse model, therapeutic study, clinical paw score; assay type: in vivo, Balb/c mice
# Method: as §1
# On day 2, mice were assessed by paw score (Table 3) and assigned to groups in a manner such that different groups have similar average paw scores. The mice that were extremely sensitive to induction (score from a single paw=4) were excluded from the study. […] On day 3, each mouse was given an intraperitoneal injection of 25 μl of LPS.
# (§4) Mice were induced for CAIA as a single group on Day 0. On day 2, mice were assessed by paw score (Table 3) and assigned to groups in a manner that different groups have similar average paw scores. The mice that were extremely sensitive to induction (score from a single paw=4) were excluded from the study. […] On day 3, each mouse was given an intraperitoneal injection of 25 µl of LPS. The clinical paw scores of the mice were assessed according to the paw score criteria in Table 3.
# as §4, with “The same CAIA mouse model was used. Mice” for “Mice”, “μl” for “µl”
# [7] = system: Experimental Autoimmune Encephalomyelitis (EAE) mouse model; experiment: Mouse experimental autoimmune encephalomyelitis (EAE) model of multiple sclerosis; assay type: in vivo, female C57BL/6 mice; settings: 150 mg/kg i.p., vs isotype control, n=12
# Method: EAE induction was carried out in 42 female C57BL/6 mice (Taconic Farms, 9 weeks old). The induction was carried out according to the following schedule:
# Day 0, Hour 0—Immunization with MOG35-55/CFA Day 0, Hour 2—Injection of pertussis toxin Day 1, Hour 0—2nd injection of pertussis toxin (24 hours after initial immunization)
# Mice were injected subcutaneously at two sites in the back with the emulsion component (containing MOG35-55) of Hooke Kit™ M OG35-55/CFA Emulsion PTX, catalog number EK-2110 (Hooke Laboratories, Lawrence Mass.). One site of injection was in the area of upper back, approximately 1 cm caudal of the neckline. The second site was in the area of lower back, approximately 2 cm cranial of the base of the tail. The injection volume was 0.1 mL at each site. Within 2 hours of the injection of emulsion, and then again 24 hours after the injection of emulsion, the pertussis toxin component of the kit was administered intraperitoneally. The volume of each injection was 0.1 mL. […]
# EAE scores were measured daily from Day 7 after immunization until the end of the study according to the criteria set out in Table 5. Body weights of the mice were measured three times a week (Monday, Wednesday and Friday), starting from Day −1 and until the end of the study. […]
# [8] = ELISA determination of Kd of 2E7 on wells coated with MDP-OVA; assay type: binding
# Method: After washes to remove unbound Abs, an anti-mouse-IgG Ab coupled with horseradish peroxidase (HSP) was added. After incubation, unbound secondary Ab was removed by washes and a chromogenic substrate of HSP was added. After reaction, the color intensity in each well was measured using a microtiter plate reader at 492 nm. […] Coefficient data: a=2.8768241, b=2.8055033, c=212.44541, and d=0.8659833. Y50=1.45, X=0.00131 μg/ml.
# A mAb (2E7) was obtained from immunization of mice with N-acetylmuramyl-L-alanyl-D-isoglutamine. […] An IgG1 mAb that specifically recognizes the glutaraldehyde linker used to couple MDP to HSA was also obtained in the screening of hybridoma clones.
molecule,measurement,setting,value
"2E7: mouse monoclonal antibody against muramyl dipeptides; heavy chain variable SEQ ID NO: 3, light chain variable SEQ ID NO: 4 (antibody, Heavy chain of the variable region of 2E7; Light chain of the variable region of 2E7) heavy: MLVESGGGLVQPGGSMKLSCIVSGFTFSYYWMSWVRQSPEKGFEWVAEIRLKSENYATNYTESVKGKFTISRDDSKSRLYLQMNSLGAEDTGIYYCLTGYAWFAYWGQGTLVTVSAAKTTPPSVYPLAPGSAAQTNSMVTLGCLVKGYFPEPVTVTWNSGSLSSGVHTFPAVLQSDLYTLSSSVTVPSSTWPSETVTCNVAHPASSTK light: DVQMIQSPKRLIYLVSKLDSGVPDRFTGSGSGTDFTLKISRVEAEDLGVYYCVQHTHFPTFGGGTKLEIKRADAAPTVSIFPPSSEQLTSGGASVVCFLNNFYPKDINVKWKIDGSERQNGVLNSWTDQDSKDSTYSMSSTLTLTKDEYERHNSYTCEATHKTSTSPIVKSFNRNEC",T cell proliferation in CD4+ T-cells,T cell proliferation,significantly reduced
same,T cell proliferation in CD8+ T-cells,T cell proliferation,significantly reduced
same,clinical paw scores on relapse,[1],effectively prevented the increase in clinical paw scores
same,progression of arthritis,[2],not able to suppress disease progression; also recorded: did not significantly suppress the progression of arthritis
same,staining of cells,Escherichia coli cells; 2E7 then FITC anti-mouse IgG,weak staining
same,cell aggregation,"Escherichia coli cells; live cells, data not shown",significant cell aggregation
same,staining of cells,[3]; 2E7 then FITC anti-mouse IgG,strong staining
same,cell aggregation,"[3]; live cells, data not shown",significant cell aggregation
same,onset of rheumatoid arthritis,[4],significantly prevented the onset of rheumatoid arthritis
same,G-CSF level in sera,[5],significantly reduced
same,sIL-1RI level in sera,[5],significantly reduced
same,sIL-6R level in sera,[5],significantly reduced
same,sVEGFR3 level in sera,[5],significantly reduced
same,clinical paw score,"[6]; 2E7 at the onset of rheumatoid arthritis vs control antibody, n=8, p<0.01",reduced clinical paw score
same,efficacy on clinical paw score,[6]; single IP dose 10 mg/kg,efficacious
same,clinical paw score,"[6]; single IP injection at 10, 40 and 160 mg/kg on Day 2, n=5",clear and dose-dependent therapeutic effects
same,"clinical symptoms, paralysis of the limbs and tail (EAE score)","[7]; three doses (1st, 4th and 7th day of disease)",significantly improved; also recorded: suppressed
same,loss of body weight,[7]; three doses,significantly improved; also recorded: significantly reduced
same,Kd,"[8]; MDP-OVA coated plate, OD492, Weibull model fit, IgG MW=150",8.7 pM
same,X (2E7 concentration at Y50=1.45),"[8]; binding curve on MDP-OVA, OD492",0.00131 µg/mL
same,affinity to MPs,[8]; in words,picomolar affinity

# Entries after “also recorded” stand apart in the source; their conditions may differ.
